The other results are listed elsewhere or left out.
system: T1, C. trachomatis L2/434/Bu expressing GFP (CTL2-GFP); design: species or system HeLa; C. trachomatis total inclusion area by high-content imaging, normalised to DMSO; details: total inclusion area; 28.5 h, 10 µM; inhibitor
T1 construct: L2/434/Bu GFP intracellular growth in HeLa cells
In short: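 Imaging read-out: GFP inclusions and Hoechst nuclei captured by high-content imaging after fixation. Inclusion area/number = chlamydial growth; nuclei count = host cell viability. MIC calculated per earlier method.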

| Structure (SMILES) | % of control remaining |
| --- | --- |
| N#Cc1cccc(C(=O)N2CCCC3(CCN(Cc4ccccc4)C3)C2)c1 (stereo not drawn) [CBK136893] | 103.026 |
| O=C1NC2(CCCN(C(=O)c3ccco3)C2)Nc2ccccc21 (stereo not drawn) [CBK284803] | 78.3094 |
| Cc1cc(NC(=O)Cc2ccc(Cl)c(Cl)c2)c2ccccc2n1 [CBK116266] | 81.5051 |
| CCCOC(=O)Cn1cnc2sc(C)c(C)c2c1=O [CBK304371] | 102.818 |
| CCN(Cc1ccccc1)C(=O)NCCc1c[nH]cn1 [CBK155220] | 101.746 |
| CS(=O)(=O)N1CC2(CCN(CCO)CC2)c2ccccc21 [CBK126677] | 103.367 |
| O=C1N2CCSC2=NC1(Nc1nccs1)C(F)(F)F (stereo not drawn) [CBK267484] | 106.301 |
| CSc1nnc(-c2ccc(Br)cc2)o1 [CBK026502] | 62.8632 |
| CCc1c(C)cc(C(=O)N(C)C(CC)c2ccccn2)c(=O)n1C (stereo not drawn) [CBK307078] | 57.8072 |
| CC(C)[C@H](CO)n1c(=O)[nH]c2ncc(-c3cccc4ncccc34)nc21 [CBK064955] | 117.334 |
| NC(=O)C1CCN(C(=O)c2cc(O)nc3ccccc23)CC1 [CBK296719] | 83.2246 |
| Cc1ccc(NS(=O)(=O)c2cc(C(=O)Nc3ccc(S(=O)(=O)N4CCCC4)cc3)ccc2C)cc1 [CBK268784] | 66.6954 |
| O=C(O)c1cccc2c1C(=O)C(CC1CCCO1)N2 (stereo not drawn) [CBK287140] | 106.446 |
| c1cnc(-c2ccsc2)c(OC2CCCCC2)n1 [CBK106764] | 107.636 |
| O=[N+]([O-])c1cccc(C(Nc2ccccn2)n2cnc3ccccc32)c1 (stereo not drawn) [CBK261145] | 76.5759 |
| Cc1noc(C)c1S(=O)(=O)Nc1csc(C(F)(F)F)c1-c1ccccc1 [CBK001237] | 96.1525 |
| Cc1cc(OC(C)C(=O)Nc2ccccc2C(=O)N2CCCC2)ccc1Cl (stereo not drawn) [CBK269710] | 98.7166 |
| CCCn1c(SCC(=O)N2CCc3ccccc32)nc(O)cc1=O [CBK305843] | 83.6648 |
| O=c1cc2oc3cc(O)c(O)cc3c(-c3cccc(OCc4ccc([N+](=O)[O-])cc4)c3)c-2cc1O [CBK265388] | 92.7158 |
| COc1ccc(-c2cc(C3CCCCCN3)no2)cc1 (stereo not drawn) [CBK285399] | 89.638 |
| NC(=O)c1cccnc1N1CCN(CCCN(c2ccc(F)cc2)c2ccc(F)cc2)CC1 [CBK025341C] | 82.1179 |

| Structure (SMILES) | % of control remaining |
| --- | --- |
| CC1CN(Cc2nc3c(c(=O)n(C)c(=O)n3C)n2CCN2CCOCC2)CC(C)O1 (stereo not drawn) [CBK269340] | 97.0675 |
| C#C[C@H]1C[N@@]2CC[C@H]1C[C@@H]2CNC(=O)Nc1cccc(C#N)c1 [CBK288754] | 91.0653 |
| COC(=O)CN1C(=O)CC2(C1=O)C(=O)N(Cc1ccccc1)c1ccc(F)cc12 (stereo not drawn) [CBK075143] | 69.1699 |
| Nc1ccc(-c2ccc(OC(F)(F)F)cc2)c2ccccc12 [CBK084327] | 26.3031 |
| Cc1c(C(=O)O)c2cc(O)ccc2n1-c1ccccc1 [CBK115329] | 74.2178 |
| CCN(CC)CC(c1ccccc1)C(O)c1ccc(OC)cc1 (stereo not drawn) [CBK262074C] | 94.0299 |
| N/C(=N\OCC(=O)Nc1cccc([N+](=O)[O-])c1)c1nonc1N [CBK262044] | 103.818 |
| COc1ccc(NC(=O)CN2CCN(c3ccccc3OC)CC2)c([N+](=O)[O-])c1 [CBK269188] | 79.7041 |
| Cc1ccc(OCc2occc2C(=O)N2CCC(O)(CN(C)C)C2)cc1 (stereo not drawn) [CBK307341] | 42.9412 |
| O=C(O)CC(CP(c1ccccc1)c1ccccc1)C(=O)O (stereo not drawn) [CBK260931] | 89.576 |
| COc1ccc(-c2cnc3[nH]c(=O)n([C@H](C)c4ccccc4)c3n2)c(OC)c1OC [CBK064236] | 82.2374 |
| O=C(O)c1ccc(NC(=O)c2ncn(-c3ccccc3)n2)cc1 [CBK269445] | 101.692 |
| Nc1cccc(-c2ccc(NCc3cc(F)c(F)c(F)c3)nc2)c1 [CBK036985] | 61.2844 |
| O=C(COc1ccc(S(=O)(=O)N2CCCCC2)cc1Cl)NCc1ccccn1 [CBK269253] | 95.926 |
| O=C(Nc1cccc(NC(=S)NC(=O)c2ccc(Cl)cc2Cl)c1)c1ccccc1F [CBK264828] | 102.415 |
| CCOC(=O)Cc1csc(NS(=O)(=O)c2ccc(OC(F)(F)F)cc2)n1 [CBK000852] | 86.0865 |
| FC(F)(F)c1cccc(-c2cn3ccnc3c(NCc3ccncc3)n2)c1 [CBK066632] | 73.6113 |
| Cc1ccccc1C(=O)Nc1cccc(NC(=O)c2nc[nH]n2)c1 [CBK267108] | 132.58 |
| CNC(=O)c1ccc(-c2cc(OC)c(OC)c(OC)c2)nc1NCC1CC1 [CBK106312] | 87.9781 |
| CN1CCN(c2ccccc2NC(=S)NC(=O)c2ccc(N3CCCCC3)c([N+](=O)[O-])c2)CC1 [CBK268520C] | 59.469 |
| Cc1ccc(-c2cc(C(=O)Nc3cccnc3)n[nH]2)c(O)c1C [CBK288158] | 88.6569 |

| Structure (SMILES) | % of control remaining |
| --- | --- |
| CC1CC(C)CN(C(=O)Cn2ncc3cccn3c2=O)C1 (stereo not drawn) [CBK283805] | 101.146 |
| COCCc1nsc(N2CCC(N(C)c3cccnn3)CC2)n1 [CBK304701] | 63.7321 |
| C(=C/c1ccccc1)/C=N/c1ccc2nc(-c3ccc(/N=C/C=C/c4ccccc4)cc3)[nH]c2c1 [CBK261656] | 99.8638 |
| C=CCNS(=O)(=O)c1ccc(NC(=O)Nc2ccc(Cl)cc2)cc1 [CBK269315] | 72.0379 |
| COc1ncccc1-c1csc(C2CN3CCCC3CO2)n1 (stereo not drawn) [CBK304110] | 61.0121 |
| O=C(NN1C(=O)c2ccccc2C1=O)c1cc(C(=O)NN2C(=O)c3ccccc3C2=O)cc(N2C(=O)c3ccccc3C2=O)c1 [CBK262100] | 99.3562 |
| O=C1Nc2ccccc2SC1(O)C(F)(F)F (stereo not drawn) [CBK025554] | 104.999 |
| CCOc1ccc(C(CC(=O)O)C(=O)O)cc1 (stereo not drawn) [CBK261363] | 85.7088 |
| CS(=O)(=O)N1CCN(c2nc(C(F)(F)F)nc3ccsc23)CC1 [CBK304594] | 72.1694 |
| Brc1ccc(CSc2nnc[nH]2)cc1 [CBK026361] | 42.2344 |
| COC(=O)Nc1nc(Cl)cc(Cl)n1 [CBK027433] | 35.2833 |
| CCOc1cc(C)c(C(C)C)cc1S(=O)(=O)NCc1ccccn1 [CBK268080] | 97.3959 |
| O=C1c2ccccc2C(=O)N1CCc1nc2c3c4c(sc3ncn2n1)CCCCC4 [CBK268327] | 123.544 |
| OC1(c2cccnc2F)CCN(Cc2cccc(F)c2)CC1 [CBK284373] | 89.0817 |
| CCN(C)C(=O)N1CCN(CCCC(c2ccc(F)cc2)c2ccc(F)cc2)CC1 [CBK024910C] | 72.6146 |
| CC(C)(C)Nc1nc(OCC#N)nc(N2CCCCC2)n1 [CBK269483] | 67.153 |
| Cn1nc(-c2ccc(F)cc2)n(-c2ccncc2)c1=O [CBK282294] | 103.512 |
| CCCn1ncc(C(=O)NC(CC)c2cn3cccnc3n2)c1C (stereo not drawn) [CBK307640] | 88.0769 |
| OC[C@@H](c1ccccc1)N1CC[C@H]2c3ccc(Br)cc3CC[C@H]21 [CBK017507C] | 56.2001 |
| CCC(Sc1nc(N)cc(=O)[nH]1)C(=O)Nc1ccc2ccccc2c1 (stereo not drawn) [CBK265761] | 78.9333 |
| Cc1nc(S(=O)(=O)Nc2nc(C(C)C)ns2)cn1C [CBK051323] | 37.1807 |

| Structure (SMILES) | % of control remaining |
| --- | --- |
| Cc1ccccc1-n1c(Cc2ccccc2)nc2c(cnn2-c2ccccc2)c1=O [CBK262310] | 71.7065 |
| CN(CC(=O)NCc1ccco1)C1CCCCCC1 [CBK254305] | 80.9598 |
| O=C(c1ccco1)N1CCC2(CC1)Nc1cccnc1-n1cccc12 [CBK284506] | 84.349 |
| Cc1nc2ccccn2c1-c1csc(Nc2ccc(C(=O)O)cc2)n1 [CBK261634B] | 30.7505 |
| CCCC(=O)NC(c1ccc(OC)cc1)c1cc(Cl)c2cccnc2c1O (stereo not drawn) [CBK293944] | 110.952 |
| OCCCNC(=S)Nc1ccc(Br)cc1Cl [CBK086487] | 54.7274 |
| Cc1cc(C)nc(Nc2n[nH]c(-c3ccccc3Cl)n2)n1 [CBK288167] | 91.972 |
| O=C(NCc1cccs1)c1ccccc1-n1cccc1 [CBK149584] | 91.147 |
| O=C(CN1C(=O)CSc2ccccc21)Nc1ccccc1C(=O)N1CCOCC1 [CBK267343] | 97.8264 |
| O=C(NCc1ccccn1)c1ccc(CNS(=O)(=O)c2cccc(C(F)(F)F)c2)cc1 [CBK267291] | 110.505 |
| CN1CCN(c2nccnc2OCC2COc3ccccc3O2)CC1 (stereo not drawn) [CBK003899C] | 19.4274 |
| C[S+]([O-])CCNC(=O)Cn1c(-c2cccs2)cc2cccnc21 (stereo not drawn) [CBK282556] | 116.304 |
| O=C(c1ccc2c(c1)ncn2CCO)N1CCC(c2ccccc2F)C1 (stereo not drawn) [CBK307075] | 104.957 |
| CC(C)c1ccc(S(=O)(=O)NCCC#N)cc1 [CBK044722] | 90.2108 |
| Cc1ccc2[nH]c(=O)c(CNc3ccc4[nH]ncc4c3)cc2c1 [CBK281936] | 83.8154 |
| Cc1ccc(C)c(C2CCCN2C(=O)c2ccc(=O)n(CC(=O)N(C)c3ccccc3)c2)c1 (stereo not drawn) [CBK285654] | 97.9671 |
| CCCc1[nH]nc(O)c1CCc1c(F)cccc1Cl [CBK081121] | 110.099 |
| O=C1N(CN2CCN(C(c3ccccc3)c3ccccc3)CC2)c2ccccc2C12OCCCO2 [CBK265538] | 116.853 |

Reference: article PMC12040169 (PLOS Biology, 2025)
